The values that follow come from ChEMBL document CHEMBL4888484, “Replenishing the malaria drug discovery pipeline: Screening and hit evaluation of the MMV Hit Generation Library 1 (HGL1) against asexual blood stage Plasmodium falciparum ,using a nano luciferase reporter read-out” (2022).

Hit rate of the full screen: of about 150,000 compounds, about 540 (0.36%) showed an effect of 50% or more. Some of the results follow.

The subject of the assay is Plasmodium falciparum. The assay can be described thus: Primary screen in NF54 nanoGlo assay, in single point, at 2uM, 72h; a lower Z score goes with more inhibition. The assay is classed as functional, Erythrocyte. Conditions: timepoint 72 hour.
As for `Cc1ccc(N2CCN(CC(=O)NCCCn3ccnc3)C2=O)cc1`, the “% Inhibition” value stood at 0% and the Z score came out at 0.04.

`CCC(=O)N1CCc2cc(-c3ccc(C(=O)N4CCN(c5ccccn5)CC4)cc3)ccc21`: the “% Inhibition” value came out at 3% and the Z score is -0.5.

With `CC(C)(O)CN1CCc2c(cccc2NCc2cncs2)C1`, the “% Inhibition” value was -9% and the Z score is reported as 0.76.

With `CC(C)(C)C(=O)Nc1c(F)cccc1F`, the “% Inhibition” value was -4% and the Z score is 0.49.

Turning to `O=C(O)c1cccc2c(-c3cccs3)n[nH]c12`, the “% Inhibition” value is reported as -1% and the Z score was 0.1.

Regarding `Cc1cc(C(=O)Nc2c(C)cnn2Cc2cccc(Cl)c2)cc(=O)[nH]1`, the “% Inhibition” value was -10% and the Z score stood at 1.84.

For `O=C(Nc1cccs1)N1C2CCC1CC(F)C2` (stereo not drawn), the “% Inhibition” value is given as -14% and the Z score is given as 1.65.

In the case of `CC(=O)c1ccc(C#N)cc1N[C@@H](C)CO`, the “% Inhibition” value is reported as -6% and the Z score is 1.13.

With `Cc1cc(C(=O)NCc2ccc(N3CCCCC3)nc2)on1`, the “% Inhibition” value is listed as 12% and the Z score was -1.54.

In the case of `CS(=O)(=O)N1CCC[C@H]1c1ccc2c(c1)OCCCO2`, the “% Inhibition” value is -14% and the Z score is 1.3.

As for `CCc1nnc([C@@H]2CC(F)(F)CN2C(=O)c2cocn2)o1`, the “% Inhibition” value was -6% and the Z score amounted to 0.95.

For `O=C1CC(C2CCCCN2C(=O)CCc2ncc(-c3ccccc3)o2)CN1` (stereo not drawn), the “% Inhibition” value is -13% and the Z score is reported as 2.52.

On to `CCN(Cc1ncoc1C(C)C)c1ccc(F)c(F)c1`, for which the “% Inhibition” value is given as -9% and the Z score turned out to be 0.75.

`COCC1(CNC(=O)Cc2ccsc2)CC1`: the “% Inhibition” value stood at 3% and the Z score is -0.49.

For the compound `O=C1OC[C@H](CO)N1CCCOc1ccc(F)cc1`, the “% Inhibition” value is listed as -2% and the Z score was found to be 0.34.

As for `O=c1[nH]nc(-c2nc(-c3ccc4c(c3)OCO4)no2)c2ccccc12`, the “% Inhibition” value was -9% and the Z score turned out to be 1.35.

On to `Cn1cc(C2C[S+]([O-])CCN2C(=O)Cc2cccc(CC(F)(F)F)c2)cn1` (stereo not drawn), for which the “% Inhibition” value was -17% and the Z score turned out to be 2.05.

Consider `C[C@H]1CCc2nc3ncn(Cc4cccc(C#N)c4)c(=O)c3cc2C1`, for which the “% Inhibition” value is -15% and the Z score is recorded as 1.95.

On to `CCOC(=O)c1nc(-c2ccc(N3CCCCC3)nc2)no1`, for which the “% Inhibition” value is given as 33% and the Z score was -4.72.

On to `CC[C@H](C)[C@H](NC(C)=O)C(=O)N1CCOC2CCN(C)CC21` (stereo partly drawn), for which the “% Inhibition” value is -1% and the Z score amounted to 0.16.

Turning to `CCn1ncnc1CNC(=O)C(C)(C)N1CCOCC1`, the “% Inhibition” value was -5% and the Z score worked out at 0.92.

Take `Cc1ccc(C(=O)N2CCOCC2)cc1NC(=O)c1cnn(CC(F)(F)F)c1`: the “% Inhibition” value is 0% and the Z score was -0.09.

`Cn1nc2c(c1NC(=O)c1c[nH]c(=O)c(C(F)(F)F)c1)CCCC2`: the “% Inhibition” value worked out at 5% and the Z score was -0.88.

On to `CCCn1cc(-c2cc(-c3cnn(C(C)C)c3)c(C#N)c(N)n2)c(C)n1`, for which the “% Inhibition” value is given as -3% and the Z score is reported as 0.41.

On to `O=C(NCCCn1ccnc1)c1cc(N2CC[C@@H]3CCCC[C@H]3C2)ccn1`, for which the “% Inhibition” value came out at 6% and the Z score is recorded as -1.06.

As to `CCCN(Cc1nnc(-c2ccccc2)o1)S(=O)(=O)c1cnn(C(F)F)c1C`, the “% Inhibition” value worked out at 44% and the Z score is -6.35.

On to `CC1OCCC1(C)NC(=O)Nc1cc(N(C)C)ncn1` (stereo not drawn), for which the “% Inhibition” value was -16% and the Z score is recorded as 1.75.

For `CC(C)[C@@H]1N(C(=O)CS(=O)(=O)C2CC2)CC12CCCCC2`, the “% Inhibition” value is recorded as -10% and the Z score is given as 1.05.

Turning to `Cc1nnc(N(C)Cc2ccc3c(c2)OCCO3)c(C#N)c1C`, the “% Inhibition” value was -15% and the Z score was found to be 2.39.

As for `O=S(=O)(c1ccc(-c2cc(C(F)(F)F)[nH]n2)o1)N1CCC(c2cc[nH]n2)CC1`, the “% Inhibition” value is -7% and the Z score was 1.07.

Consider `CC(C)(C)c1noc(Cn2ccnc2[C@@H](O)c2ccco2)n1`, for which the “% Inhibition” value came out at 15% and the Z score is given as -1.85.

With `CC(C)(C)[C@H](CCO)NC(=O)c1cc(F)cc(F)c1`, the “% Inhibition” value is on record as -14% and the Z score worked out at 1.63.

Turning to `COC(=O)C[C@@H](c1cnn(C)c1C)c1c(C)[nH][nH]c1=O`, the “% Inhibition” value came out at 7% and the Z score is -0.86.

For `CC[C@H](C)n1nnc2cc(S(=O)(=O)N3CCC(C(=O)NCc4cccc(F)c4)CC3)ccc21`, the “% Inhibition” value is listed as -18% and the Z score was found to be 2.55.

In the case of `O=C(CN1CCOCC1)Nc1cccc2nonc12`, the “% Inhibition” value is listed as -13% and the Z score came to 1.38.

`COCCN1C[C@H](O)C(C)(C)COCCC[C@H]2CN(Cc3ccc(S(C)(=O)=O)cc3)CC[C@H]2CC1=O`: the “% Inhibition” value is -12% and the Z score is listed as 1.5.

Regarding `Cc1csc(C2(NC(=O)[C@@H]3CCC(=O)N3)CCCCCC2)n1`, the “% Inhibition” value was -8% and the Z score was 1.2.

In the case of `C[C@@H](c1ccncc1)N(C)Cc1ccc2cccc(F)c2n1`, the “% Inhibition” value was -15% and the Z score amounted to 1.5.

In the case of `CN1CCN(CC2(CNc3nnc(C4CCC4)o3)CC2)CC1`, the “% Inhibition” value is on record as 6% and the Z score is -1.02.

For the compound `CC(=O)Nc1ccc(Oc2nnc(Oc3ccc(NC(C)=O)cc3)c3ccccc23)cc1`, the “% Inhibition” value is reported as -8% and the Z score was determined as 0.83.

Consider `O=C(NCCc1cnc2c(Cl)cnn2c1)[C@@H]1CCCO1`, for which the “% Inhibition” value is -11% and the Z score stood at 1.81.

In the case of `Cc1n[nH]c(C)c1S(=O)(=O)NC1CCNCC1C` (stereo not drawn), the “% Inhibition” value is given as -15% and the Z score was 1.73.

As for `CC(C)Oc1ccc(C[C@H]2CCC(=O)N(C)C2=O)cc1`, the “% Inhibition” value was -3% and the Z score came out at 0.36.

As to `COc1cc(Br)c(F)cc1CN`, the “% Inhibition” value is on record as -10% and the Z score stood at 1.29.

`CCN(CC(=O)NC(=O)Nc1ccccc1F)[C@@H](C)c1cccc(OC)c1`: the “% Inhibition” value is -6% and the Z score amounted to 1.05.

For `O=C(N1CCOCC1)[C@]1(F)CCCN(Cc2ccncc2)C1`, the “% Inhibition” value was -2% and the Z score came out at 0.33.

`COc1cncc(CCC(=O)N2CCN(Cc3ccccn3)C[C@@H]2C)c1`: the “% Inhibition” value is listed as -5% and the Z score turned out to be 0.98.

As to `COc1ccccc1N1CCN(C(=O)[C@H](C)n2ccnc2)CC1`, the “% Inhibition” value is listed as -19% and the Z score is reported as 2.94.

For `CCOC(=O)c1onc(-c2ccccc2)c1NC(=O)[C@H]1CCCO1`, the “% Inhibition” value is recorded as -2% and the Z score is reported as 0.26.

With `COc1ccc2c(c1)OC(C)(C)C[C@@H]2NC(=O)N1CCc2[nH]nc(C)c2C1`, the “% Inhibition” value is given as -1% and the Z score amounted to 0.26.

For `CC(C)Cc1nc(CN(C)C2CCN(c3ncnc4[nH]cnc34)CC2)no1`, the “% Inhibition” value is on record as -13% and the Z score was 1.65.

As to `c1ccc2c(CCNCc3cnc(N4CCOCC4)nc3)c[nH]c2c1`, the “% Inhibition” value is -13% and the Z score amounted to 1.71.

Turning to `Cn1cc(CN(C(=O)CN2C[C@@H](Cc3ccccc3)CC2=O)C2CC2)cn1`, the “% Inhibition” value worked out at 1% and the Z score is -0.09.

In the case of `COc1ccccc1N1CCN(C(=O)c2ccc3c(=O)n4c(nc3c2)CCCCC4)CC1`, the “% Inhibition” value was -7% and the Z score amounted to 0.71.
